The results in this text go back to the RNAGym collection of RNA variant scans (doi:10.1093/nar/gkz1192).

B1: CPEB3 Ribozyme (parent)
chain: UAACAGGGGGCCACAGCAGAAGCGUUCACGUCGCAGCCCCUGUCAGAUUCUGGUGAAUCUGCGAAUUCUGCUGUAUAUCUC

Read counts are not given, so values of variants with three or more changes are uncertain.

The variants in this data set derive from B1. The experiment in a line: self-cleavage, relative activity (ratio to wild type); higher = more cleavage; in vitro, sequencing. The procedure, abridged:
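After error-prone PCR and barcoding, CPEB3 ribozyme mutant libraries were transcribed with T7 RNA polymerase at 37°C for 5 hours, then given 15 min with DNase I before an EDTA stop, and they cleaved during both steps. Reverse transcription with template switching preceded Illumina sequencing. Relative activity divides a variant's cleaved/total read fraction by the unmutated ribozyme's. At least 5 reads were required per variant, and three batches were averaged.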
On to UAACAGGGGGCCACAGCAGAAGCGUCCACGUCGCAGCCCCUGUCAGAUCCUGGUGAAUCUGCGAAUUCUGCUGCAUAUCUC [U26C U49C U74C], for which the self-cleavage stood at 0.23.
The value for UAACAGGGGGCCACAGCAGAAGCGUCCACGUCGCAGCCCCUGUCAGAUGCUGGUGAAACUGCGAAUUCUGCUGUAUAUCUC [U26C U49G U58A] was 0.34.
Consider UAACAGGGGGCCACAGCAGAAGCGUCCACGUCGCAGCCCCUGUCAGACUCUGGUGAAUCUGCGAAUCCUGCUGUAUGUCUC [U26C U48C U67C A77G], for which the self-cleavage worked out at 0.05.
For UAACAGGGGGCCACAGCAGAAGCGUCCACGUCGCAGCCCCUGUCAGAUUCUGGCGAGUCUGCGAAUUCUGCUGUAUAUCUC [U26C U54C A57G], the self-cleavage came to 0.21.
The value for UAACAGGGGGCCACAGCAGAAGCGUCCACGUCGCAGCCCCUGUCAGAUUCAGGUGAAUCUGCGAAUUCUGCUGUAGAUCUC [U26C U51A U76G] was 0.24.
Turning to UAACAGGGGGCCACAGCAGAAGCGUCCACGUCGCAGCCCCUGUCAGAUUCCGGUGAAUCGGCGUCUUCUGCUGUACAUCUC [U26C U51C U60G A64U A65C U76C], the self-cleavage worked out at 0.1.
The value for UAACAGGGGGCCACAGCAGAAGCGUCCACGUCGCAGCCCCUGUCAGAUUCGGGUGAAUCUGCGAAUUCCGCUGUAUAUCCC [U26C U51G U69C U80C] was 0.13; that for UAACAGGGGGCCACAGCAGAAGCGUCCACGUCGCAGCCCCUGUCAGAUUCCGGUGAAUCUGCGAAUUCUGCUGUACAUCUC [U26C U51C U76C] was 0.52.
The value for UAACAGGGGGCCACAGCAGAAGCGUCCACGUCGCAGCCCCUGUCAGAUUCUGGCGAAUCUGCGGAUUCUGCUGUAUAUCUC [U26C U54C A64G] was 0.28; that for UAACAGGGGGCCACAGCAGAAGCGUCCACGUCGCAGCCCCUGCCAGAUUCUGGUGAAUCUGCGAAUUCUGUUGUGUAUCUC [U26C U43C C71U A75G] was 0.26.
The value for UAACAGGGGGCCACAGCAGAAGCGUCCACGUCGCAGCCCCUGUCAGACUCUGGUGAAUAUGCGAAUUUUGCUGUAUAUCUC [U26C U48C C59A C68U] was 0.21; that for UAACAGGGGGCCACAGCAGAAGCGUCCACGUCGCAGCCCCUGUCAGAAUCUGGUGGAUCUGCGAAUUCUGCUGUAUCUCUC [U26C U48A A56G A77C] was 0.24; that for UAACAGGGGGCCACAGCAGAAGCGUCCACGUCGCAGCCCCUGUCAGAUUCCGGUGAGUCUGCGAAUUCUGCUGUAUAUCUC [U26C U51C A57G] was 0.25.
On to UAACAGGGGGCCACAGCAGAAGCGUCCACGUCGCAGCCCCUGUCAGAUCCUGGCGUAUCUGCGAAUUCUGCUGUAUACCUC [U26C U49C U54C A56U U78C], for which the self-cleavage was 0.09.
As for UAACAGGGGGCCACAGCAGAAGCGUCCACGUCGCAGCCCCUGGCAGAUUCUGGUGACUCAGCGUAUUCUGCUGUAUAUCCC [U26C U43G A57C U60A A64U U80C], the self-cleavage came out at 0.13.
The value for UAACAGGGGGCCACAGCAGAAGCGUCCACGUCGCAGCCCCUGUCAGAUUCUGGUGAAUCGGCGGAUUCUGCUGUAUAUCUC [U26C U60G A64G] was 0.12; that for UAACAGGGGGCCACAGCAGAAGCGUCCACGUCGCAGCCCCUGCCAGACUCUGGUGAACCAGCGAAUUCUGCUGUAUAUCUC [U26C U43C U48C U58C U60A] was 0.17; that for UAACAGGGGGCCACAGCAGAAGCGUCCACGUCGCAGCCCCUGUCAGAUUCUGGCGAAUCUGCGAACUCUGCUGUAUAUCUC [U26C U54C U66C] was 0.4.
UAACAGGGGGCCACAGCAGAAGCGUCCACGUCGCAGCCCCUGUCAGAUUCUGGUGAACCUUCGAAUUCUGCUGUGUAUCUC [U26C U58C G61U A75G]: the self-cleavage was 0.14.
The value for UAACAGGGGGCCACAGCAGAAGCGUCCACGUCGCAGCCCCUGUCAGAUUCUGGCUAAUCUGCGAAUUCUGCUGUAUACUUC [U26C U54C G55U U78C C79U] was 0.47; that for UAACAGGGGGCCACAGCAGAAGCGUCCACGUCGCAGCCCCUGUCAGAUCCUGGUGAAUCCGCGAGUUCUGCUGUAUAUCUC [U26C U49C U60C A65G] was 0.11; that for UAACAGGGGGCCACAGCAGAAGCGUCCACGUCGCAGCCCCUGUCAGACUCUGGUGAAUCUGCGAAUUCUGCUGUAUAUCAC [U26C U48C U80A] was 0.34.
Turning to UAACAGGGGGCCACAGCAGAAGCGUCCACGUCGCAGCCCCUGUCAGAAUCUGGUGAAUCCGCGAAUUCUGCUGUAUAUCUC [U26C U48A U60C], the self-cleavage was 0.36.
With UAACAGGGGGCCACAGCAGAAGCGUCCACGUCGCAGCCCCUGUCAGACUCUGGUGAACCUGCGAAUUCCGCUGUAUAUCUC [U26C U48C U58C U69C], the self-cleavage was 0.15.
The value for UAACAGGGGGCCACAGCAGAAGCGUCCACGUCGCAGCCCCUGUCAGAUCCUGGUGAGUCUGCGAAUUCUGCAGUAUAUCUC [U26C U49C A57G U72A] was 0.43; that for UAACAGGGGGCCACAGCAGAAGCGUCCACGUCGCAGCCCCUGUCAGAUUCUGGCGUAUCUGCGAAUUCUGCUGUAUAUCUC [U26C U54C A56U] was 0.36; that for UAACAGGGGGCCACAGCAGAAGCGUCCACGUCGCAGCCCCUGUCAGAUUCUGGCGAAUCUGCGUAUUCUGCUGUAUAUAUC [U26C U54C A64U C79A] was 0.15.
The value for UAACAGGGGGCCACAGCAGAAGCGUCCACGUCGCAGCCCCUGUCAGAUUCUGGUGAAUCCGCGAAUUCUGCUGAAUAUCUC [U26C U60C U74A] was 0.55; that for UAACAGGGGGCCACAGCAGAAGCGUCCACGUCGCAGCCCCUGUCAGACUCUGGUGAAUCCGCGGAUUCUGCUGUAUAUCUC [U26C U48C U60C A64G] was 0.18.
The value for UAACAGGGGGCCACAGCAGAAGCGUCCACGUCGCAGCCCCUGUCAGAUUCUGGCGUAUCUGCGAAAUCUGCUGUAUAUCUC [U26C U54C A56U U66A] was 0.33.
As to UAACAGGGGGCCACAGCAGAAGCGUCCACGUCGCAGCCCCUGUCAGAUUCUGGAGAAUCUGCGAAUUCAGCUGUAUAUCUC [U26C U54A U69A], the self-cleavage came out at 0.16.
The value for UAACAGGGGGCCACAGCAGAAGCGUCCACGUCGCAGCCCCUGUCAGAUUCGGGUGAAUCUGCGAGUCCUGCUGUAUAUCUC [U26C U51G A65G U67C] was 0.19.
For the variant UAACAGGGGGCCACAGCAGAAGCGUCCACGUCGCAGCCCCUGUCAGAUUCUGGUGAAUCAGCGAUUUCUGCUGUAUAUCUC [U26C U60A A65U], the self-cleavage came to 0.14.
As for UAACAGGGGGCCACAGCAGAAGCGUCCACGUCGCAGCCCCUGUCAGACUCUGGUGGAUCUGCGAAUUCUGCUGUAUAUCCC [U26C U48C A56G U80C], the self-cleavage was 0.13.
